What all share (assay): SPR, Protein L capture
One test has as its target T1, human FcRn (human, UniProt P55899 part only; P61769 part only, limits assumed).
T1 construct: also called hFcRn

The target in test [1] is T2, PRYSPRY domain of mouse TRIM21 with N-terminal 6xHis tag (mouse).
T2 construct: Expressed in E. coli; also called mTRIM21; mouse TRIM21.PRYSPRY
T2 chain: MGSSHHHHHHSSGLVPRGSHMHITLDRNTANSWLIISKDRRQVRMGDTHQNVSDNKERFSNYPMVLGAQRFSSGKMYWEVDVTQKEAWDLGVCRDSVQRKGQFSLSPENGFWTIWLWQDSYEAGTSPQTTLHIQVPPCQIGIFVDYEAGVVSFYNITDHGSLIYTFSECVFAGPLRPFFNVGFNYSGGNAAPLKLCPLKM

Test [2] deals with T3, PRYSPRY domain of human TRIM21 with N-terminal 6xHis tag (human).
T3 construct: Expressed in E. coli; also called hTRIM21; human TRIM21.PRYSPRY
T3 chain: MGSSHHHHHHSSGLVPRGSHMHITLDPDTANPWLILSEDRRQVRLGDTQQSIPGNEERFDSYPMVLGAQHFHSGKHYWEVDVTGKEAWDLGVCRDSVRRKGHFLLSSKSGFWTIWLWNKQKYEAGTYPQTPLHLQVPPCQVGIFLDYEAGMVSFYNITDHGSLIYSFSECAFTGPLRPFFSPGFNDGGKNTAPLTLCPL

Sequence of human FcRn (P55899 24-290 limits assumed, form in doubt, chain 1 of 2): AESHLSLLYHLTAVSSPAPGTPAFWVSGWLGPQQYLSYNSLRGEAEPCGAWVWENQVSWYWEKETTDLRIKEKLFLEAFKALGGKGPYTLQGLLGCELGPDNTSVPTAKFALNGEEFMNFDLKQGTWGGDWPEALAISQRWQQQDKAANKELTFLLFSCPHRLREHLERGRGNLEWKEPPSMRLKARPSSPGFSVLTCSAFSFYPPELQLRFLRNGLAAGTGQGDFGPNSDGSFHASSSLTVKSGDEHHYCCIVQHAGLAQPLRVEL
Sequence of human FcRn (P61769 21-119 limits assumed, form in doubt, chain 2 of 2, further chain): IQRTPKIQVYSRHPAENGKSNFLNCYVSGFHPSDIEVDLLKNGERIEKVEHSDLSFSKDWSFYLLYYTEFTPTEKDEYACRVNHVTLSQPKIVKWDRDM

B1: MRAH-G1d/MRAL-KT0 H435L (antibody, human IgG1, kappa)
heavy: QVQLQESGPGLVRPSQTLSLTCTVSGYSITSDHAWSWVRQPPGRGLEWIGYISYSGITTYNPSLKSRVTMLRDTSKNQFSLRLSSVTAADTAVYYCARSLARTTAMDYWGQGSLVTVSS[human IgG1 constant region with H435L (EU numbers) omitted here]
light: DIQMTQSPSSLSASVGDRVTITCRASQDISSYLNWYQQKPGKAPKLLIYYTSRLHSGVPSRFSGSGSGTDFTFTISSLQPEDIATYYCQQGNTLPYTFGQGTKVEIKRTVAAPSVFIFPPSDEQLKSGTASVVCLLNNFYPREAKVQWKVDNALQSGNSQESVTEQDSKDSTYSLSSTLTLSKADYEKHKVYACEVTHQGLSSPVTKSFNRGEC
notes: copies: 2 + 2
In the case of B1, in the test with human FcRn, the “hFcRn binding level ratio (variant/control antibody)” value came to 0.04. In addition, the “mTRIM21 binding level ratio (variant/control antibody)” value in test [1] is 1.95. The “hTRIM21 binding level ratio (variant/control antibody)” value in test [2] was determined as 0.01.

B2: MRAH-G1d/MRAL-KT0 H435M (antibody, human IgG1, kappa)
heavy: QVQLQESGPGLVRPSQTLSLTCTVSGYSITSDHAWSWVRQPPGRGLEWIGYISYSGITTYNPSLKSRVTMLRDTSKNQFSLRLSSVTAADTAVYYCARSLARTTAMDYWGQGSLVTVSS[human IgG1 constant region with H435M (EU numbers) omitted here]
light: DIQMTQSPSSLSASVGDRVTITCRASQDISSYLNWYQQKPGKAPKLLIYYTSRLHSGVPSRFSGSGSGTDFTFTISSLQPEDIATYYCQQGNTLPYTFGQGTKVEIKRTVAAPSVFIFPPSDEQLKSGTASVVCLLNNFYPREAKVQWKVDNALQSGNSQESVTEQDSKDSTYSLSSTLTLSKADYEKHKVYACEVTHQGLSSPVTKSFNRGEC
notes: copies: 2 + 2
B2: in the test with human FcRn, the “hFcRn binding level ratio (variant/control antibody)” value worked out at 0.05. The “mTRIM21 binding level ratio (variant/control antibody)” value in test [1] was 2.04. Also, the “hTRIM21 binding level ratio (variant/control antibody)” value in test [2] is -0.032.

B3: MRAH-G1d/MRAL-KT0 H435W (antibody, human IgG1, kappa)
heavy: QVQLQESGPGLVRPSQTLSLTCTVSGYSITSDHAWSWVRQPPGRGLEWIGYISYSGITTYNPSLKSRVTMLRDTSKNQFSLRLSSVTAADTAVYYCARSLARTTAMDYWGQGSLVTVSS[human IgG1 constant region with H435W (EU numbers) omitted here]
light: DIQMTQSPSSLSASVGDRVTITCRASQDISSYLNWYQQKPGKAPKLLIYYTSRLHSGVPSRFSGSGSGTDFTFTISSLQPEDIATYYCQQGNTLPYTFGQGTKVEIKRTVAAPSVFIFPPSDEQLKSGTASVVCLLNNFYPREAKVQWKVDNALQSGNSQESVTEQDSKDSTYSLSSTLTLSKADYEKHKVYACEVTHQGLSSPVTKSFNRGEC
notes: copies: 2 + 2
In the case of B3, the “hFcRn binding level ratio (variant/control antibody)” value with human FcRn was determined as 0.01. Moreover, the “mTRIM21 binding level ratio (variant/control antibody)” value in test [1] is 1.87. Moreover, the “hTRIM21 binding level ratio (variant/control antibody)” value in test [2] worked out at 0.067.

B4: MRAH-G1d/MRAL-KT0 H435S (antibody, human IgG1, kappa)
heavy: QVQLQESGPGLVRPSQTLSLTCTVSGYSITSDHAWSWVRQPPGRGLEWIGYISYSGITTYNPSLKSRVTMLRDTSKNQFSLRLSSVTAADTAVYYCARSLARTTAMDYWGQGSLVTVSS[human IgG1 constant region with H435S (EU numbers) omitted here]
light: DIQMTQSPSSLSASVGDRVTITCRASQDISSYLNWYQQKPGKAPKLLIYYTSRLHSGVPSRFSGSGSGTDFTFTISSLQPEDIATYYCQQGNTLPYTFGQGTKVEIKRTVAAPSVFIFPPSDEQLKSGTASVVCLLNNFYPREAKVQWKVDNALQSGNSQESVTEQDSKDSTYSLSSTLTLSKADYEKHKVYACEVTHQGLSSPVTKSFNRGEC
notes: copies: 2 + 2
Turning to B4, the “hFcRn binding level ratio (variant/control antibody)” value in the test with human FcRn stood at 0.02. The “mTRIM21 binding level ratio (variant/control antibody)” value in test [1] stood at 1.23. For the same molecule, in test [2], the “hTRIM21 binding level ratio (variant/control antibody)” value is -0.082.

B5: MRAH-G1d/MRAL-KT0 I253F (antibody, human IgG1, kappa)
heavy: QVQLQESGPGLVRPSQTLSLTCTVSGYSITSDHAWSWVRQPPGRGLEWIGYISYSGITTYNPSLKSRVTMLRDTSKNQFSLRLSSVTAADTAVYYCARSLARTTAMDYWGQGSLVTVSS[human IgG1 constant region with I253F (EU numbers) omitted here]
light: DIQMTQSPSSLSASVGDRVTITCRASQDISSYLNWYQQKPGKAPKLLIYYTSRLHSGVPSRFSGSGSGTDFTFTISSLQPEDIATYYCQQGNTLPYTFGQGTKVEIKRTVAAPSVFIFPPSDEQLKSGTASVVCLLNNFYPREAKVQWKVDNALQSGNSQESVTEQDSKDSTYSLSSTLTLSKADYEKHKVYACEVTHQGLSSPVTKSFNRGEC
notes: copies: 2 + 2
For B5, the “hFcRn binding level ratio (variant/control antibody)” value with human FcRn came out at 0. The “mTRIM21 binding level ratio (variant/control antibody)” value in test [1] was found to be 2.31. For the same molecule, the “hTRIM21 binding level ratio (variant/control antibody)” value in test [2] was 1.45.

B6: MRAH-G1d/MRAL-KT0 H435T (antibody, human IgG1, kappa)
heavy: QVQLQESGPGLVRPSQTLSLTCTVSGYSITSDHAWSWVRQPPGRGLEWIGYISYSGITTYNPSLKSRVTMLRDTSKNQFSLRLSSVTAADTAVYYCARSLARTTAMDYWGQGSLVTVSS[human IgG1 constant region with H435T (EU numbers) omitted here]
light: DIQMTQSPSSLSASVGDRVTITCRASQDISSYLNWYQQKPGKAPKLLIYYTSRLHSGVPSRFSGSGSGTDFTFTISSLQPEDIATYYCQQGNTLPYTFGQGTKVEIKRTVAAPSVFIFPPSDEQLKSGTASVVCLLNNFYPREAKVQWKVDNALQSGNSQESVTEQDSKDSTYSLSSTLTLSKADYEKHKVYACEVTHQGLSSPVTKSFNRGEC
notes: copies: 2 + 2
For B6, the “hFcRn binding level ratio (variant/control antibody)” value in the test with human FcRn worked out at 0.02. For the same molecule, the “mTRIM21 binding level ratio (variant/control antibody)” value in test [1] is 1.59. In test [2], the “hTRIM21 binding level ratio (variant/control antibody)” value was -0.021.

B7: MRAH-G1d/MRAL-KT0 H435N (antibody, human IgG1, kappa)
heavy: QVQLQESGPGLVRPSQTLSLTCTVSGYSITSDHAWSWVRQPPGRGLEWIGYISYSGITTYNPSLKSRVTMLRDTSKNQFSLRLSSVTAADTAVYYCARSLARTTAMDYWGQGSLVTVSS[human IgG1 constant region with H435N (EU numbers) omitted here]
light: DIQMTQSPSSLSASVGDRVTITCRASQDISSYLNWYQQKPGKAPKLLIYYTSRLHSGVPSRFSGSGSGTDFTFTISSLQPEDIATYYCQQGNTLPYTFGQGTKVEIKRTVAAPSVFIFPPSDEQLKSGTASVVCLLNNFYPREAKVQWKVDNALQSGNSQESVTEQDSKDSTYSLSSTLTLSKADYEKHKVYACEVTHQGLSSPVTKSFNRGEC
notes: copies: 2 + 2
As to B7, in the test with human FcRn, the “hFcRn binding level ratio (variant/control antibody)” value is 0.23. The “mTRIM21 binding level ratio (variant/control antibody)” value in test [1] came out at 1.15. For the same molecule, the “hTRIM21 binding level ratio (variant/control antibody)” value in test [2] is -0.021.

B8: MRAH-G1d/MRAL-KT0 H435V (antibody, human IgG1, kappa)
heavy: QVQLQESGPGLVRPSQTLSLTCTVSGYSITSDHAWSWVRQPPGRGLEWIGYISYSGITTYNPSLKSRVTMLRDTSKNQFSLRLSSVTAADTAVYYCARSLARTTAMDYWGQGSLVTVSS[human IgG1 constant region with H435V (EU numbers) omitted here]
light: DIQMTQSPSSLSASVGDRVTITCRASQDISSYLNWYQQKPGKAPKLLIYYTSRLHSGVPSRFSGSGSGTDFTFTISSLQPEDIATYYCQQGNTLPYTFGQGTKVEIKRTVAAPSVFIFPPSDEQLKSGTASVVCLLNNFYPREAKVQWKVDNALQSGNSQESVTEQDSKDSTYSLSSTLTLSKADYEKHKVYACEVTHQGLSSPVTKSFNRGEC
notes: copies: 2 + 2
In the case of B8, the “hFcRn binding level ratio (variant/control antibody)” value with human FcRn stood at 0.03. Moreover, the “mTRIM21 binding level ratio (variant/control antibody)” value in test [1] was 1.35. For the same molecule, the “hTRIM21 binding level ratio (variant/control antibody)” value in test [2] was -0.003.

B9: MRAH-G1d/MRAL-KT0 H435Y (antibody, human IgG1, kappa)
heavy: QVQLQESGPGLVRPSQTLSLTCTVSGYSITSDHAWSWVRQPPGRGLEWIGYISYSGITTYNPSLKSRVTMLRDTSKNQFSLRLSSVTAADTAVYYCARSLARTTAMDYWGQGSLVTVSS[human IgG1 constant region with H435Y (EU numbers) omitted here]
light: DIQMTQSPSSLSASVGDRVTITCRASQDISSYLNWYQQKPGKAPKLLIYYTSRLHSGVPSRFSGSGSGTDFTFTISSLQPEDIATYYCQQGNTLPYTFGQGTKVEIKRTVAAPSVFIFPPSDEQLKSGTASVVCLLNNFYPREAKVQWKVDNALQSGNSQESVTEQDSKDSTYSLSSTLTLSKADYEKHKVYACEVTHQGLSSPVTKSFNRGEC
notes: copies: 2 + 2
As for B9, in the test with human FcRn, the “hFcRn binding level ratio (variant/control antibody)” value worked out at 0.02. Also, the “mTRIM21 binding level ratio (variant/control antibody)” value in test [1] stood at 1.79. Moreover, the “hTRIM21 binding level ratio (variant/control antibody)” value in test [2] amounted to 0.077.

B10: MRAH-G1d/MRAL-KT0 I253H (antibody, human IgG1, kappa)
heavy: QVQLQESGPGLVRPSQTLSLTCTVSGYSITSDHAWSWVRQPPGRGLEWIGYISYSGITTYNPSLKSRVTMLRDTSKNQFSLRLSSVTAADTAVYYCARSLARTTAMDYWGQGSLVTVSS[human IgG1 constant region with I253H (EU numbers) omitted here]
light: DIQMTQSPSSLSASVGDRVTITCRASQDISSYLNWYQQKPGKAPKLLIYYTSRLHSGVPSRFSGSGSGTDFTFTISSLQPEDIATYYCQQGNTLPYTFGQGTKVEIKRTVAAPSVFIFPPSDEQLKSGTASVVCLLNNFYPREAKVQWKVDNALQSGNSQESVTEQDSKDSTYSLSSTLTLSKADYEKHKVYACEVTHQGLSSPVTKSFNRGEC
notes: copies: 2 + 2
As for B10, the “hFcRn binding level ratio (variant/control antibody)” value with human FcRn was found to be 0. Moreover, the “mTRIM21 binding level ratio (variant/control antibody)” value in test [1] worked out at 1.32. In addition, in test [2], the “hTRIM21 binding level ratio (variant/control antibody)” value is 0.928.

The record behind these values is US20210238308A1 (Chugai, published 2021).
